From PubChem BioAssay AID1477 (National Center for Advancing Translational Sciences (NCATS), 2009)
Screen size: about 230,000 compounds; fewer than 10 were called active. Inconclusive results, whose numbers are uncertain, are shown with a selection of clear calls. Calls come from the whole dose curve; as a rule, active = well fitted curve in the direction sought with a large enough effect; inconclusive = small, poorly fitted or top-dose-only effect, or effect the other way, or another doubt; inactive = no such curve, though single readings can be large or run the other way. No potency is given beside an inconclusive call; the fits are too rough.

target: Runt-related transcription factor 1 (Homo sapiens) + Core-binding factor subunit beta (Homo sapiens) (UniProt Q01196+Q13951); assay: qHTS Assay for Compounds Blocking the Interaction Between CBF-beta and RUNX1 for the Treatment of Acute Myeloid Leukemia; conditions: AlphaScreen CBFb-His/RUNX1-biotin binding, biochemical; series mostly up to 59.8 µM
Summary of the method: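 CBFb-His/RUNX1-biotin, 30 nM each, preincubated 20 min RT; compound 15 min RT; Ni + streptavidin beads 50 ng each, 90 min RT; AlphaScreen read.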

Chain of UniProt Q01196 (Q01196 whole entry, looked up): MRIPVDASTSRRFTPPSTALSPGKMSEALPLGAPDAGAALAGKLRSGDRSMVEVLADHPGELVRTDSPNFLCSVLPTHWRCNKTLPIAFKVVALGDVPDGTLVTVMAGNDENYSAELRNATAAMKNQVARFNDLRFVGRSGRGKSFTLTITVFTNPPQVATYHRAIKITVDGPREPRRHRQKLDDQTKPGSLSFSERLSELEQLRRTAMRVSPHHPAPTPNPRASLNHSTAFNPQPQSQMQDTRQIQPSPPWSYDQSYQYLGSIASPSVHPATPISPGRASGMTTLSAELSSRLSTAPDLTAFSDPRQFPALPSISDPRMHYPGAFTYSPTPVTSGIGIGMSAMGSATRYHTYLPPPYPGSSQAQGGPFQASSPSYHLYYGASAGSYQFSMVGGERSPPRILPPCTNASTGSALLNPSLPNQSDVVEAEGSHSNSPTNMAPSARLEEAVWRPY
Chain of UniProt Q01196 (Q13951 whole entry, looked up): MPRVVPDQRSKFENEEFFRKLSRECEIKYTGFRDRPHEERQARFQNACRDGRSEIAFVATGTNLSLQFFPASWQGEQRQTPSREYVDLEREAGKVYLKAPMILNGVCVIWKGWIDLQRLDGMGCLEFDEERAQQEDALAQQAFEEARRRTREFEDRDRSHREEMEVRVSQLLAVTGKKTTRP

Question: For `Cc1ccc(OS(=O)(=O)c2ccc(-c3csc(C)n3)s2)c(C)c1`, which Potency is on record?
Answer: The Potency was inconclusive [activator, single point].

Question: `CCOC(=O)c1sc(S(C)(=O)=O)c2c1CC(C)(C)C/C2=N/O` was tested. Which Potency did it give?
Answer: Its Potency is “inactive”.

Question: For `O=C(NCc1cccnc1)c1ccc(COc2ccc3c(c2)CCC3)o1`, which Potency is on record?
Answer: Its Potency is inconclusive [inhibitor, single point].

Question: For `NC(=S)N/N=C/c1c(O)ccc2ccccc12`, which Potency is on record?
Answer: Its Potency is inconclusive [inhibitor, single point].

Question: `COc1ccc(C2c3cc(OC)c(OC)cc3Cc3c4cc(OC)c(OC)cc4cc[n+]32)cc1OC` (configuration not stated) was tested. Which Potency did it give?
Answer: Its Potency is “inactive”.

Question: Which Potency does the source give for `COc1ccc2nc(C)cc(SCC(=O)N/N=C/c3ccc(O)c(O)c3)c2c1` here?
Answer: The Potency was inconclusive [inhibitor, single point].

Question: With `CCCCC1=CC2=C(c3ccco3)C(=O)C(C)(OC(=O)c3ccc(OC)cc3)C(=O)C2=CN1Cc1ccc2c(c1)OCO2` (configuration not stated) as the compound, how does the Potency read?
Answer: Its Potency is inconclusive [inhibitor, single point].

Question: For `Nc1c(O)ccc2c1C(=O)c1ccccc1C2=O`, which Potency is on record?
Answer: The Potency was inconclusive [inhibitor, single point].

Question: With `Cc1cc(=O)oc2cc(OCC(=O)NCCc3nc4ccccc4[nH]3)ccc12` as the compound, how does the Potency read?
Answer: The Potency was “inactive”.

Question: `Cc1cc(C(=O)COC(=O)c2ccc(O)cc2)c(C)n1Cc1ccco1` was tested. Which Potency did it give?
Answer: Its Potency is inconclusive [inhibitor, single point].

Question: With `CC[C@H](C)[C@H](NC(=O)[C@H](N)Cc1ccc(O)cc1)C(=O)N[C@@H](CC(N)=O)C(=O)N[C@@H](CC(C)C)C(=O)N[C@H](C(=O)N[C@@H](C(=O)N[C@@H](CCCN=C(N)N)C(=O)N[C@@H](CCC(N)=O)C(=O)N[C@@H](CCCN=C(N)N)C(=O)N[C@H](Cc1ccc(O)cc1)C(N)=O)[C@@H](C)O)[C@@H](C)CC` as the compound, how does the Potency read?
Answer: Its Potency is “inactive”.

Question: How did the Potency turn out when `CCOC(=O)c1c(CSc2ccc(C)cc2)n(C)c2cc(Br)c(O)c(CN(C)C)c12` was run?
Answer: The Potency was inconclusive [inhibitor, single point].

Question: How did the Potency turn out when `Cc1cccc(NC(=O)C(c2ccccc2Cl)N2CCOCC2)c1` (configuration not stated) was run?
Answer: The Potency was “inactive”.

Question: `Cc1cnccc1CN(C)Cc1nc(Cc2ccccc2Cl)no1` was tested. Which Potency did it give?
Answer: Its Potency is “inactive”.

Question: With `O=C(CCCN1C(=O)/C(=C/c2ccccc2)SC1=S)Nc1ccc(O)cc1` as the compound, how does the Potency read?
Answer: The Potency was inconclusive [inhibitor, partial curve].

Question: How did the Potency turn out when `Cc1cc[n+](-c2nc([O-])sc2/C=N/Nc2ccc([N+](=O)[O-])cc2)cc1` was run?
Answer: Its Potency is “inactive”.

Question: With `CC(=O)c1ccc(NC(=O)CSc2ccsc2[N+](=O)[O-])cc1` as the compound, how does the Potency read?
Answer: The Potency was inconclusive [inhibitor, single point].

Question: Which Potency does the source give for `COC(=O)C1=C(C(=O)OC)SC(=C2C(=S)C(C)(C)N(C(=O)C(C)C)c3ccccc32)S1` here?
Answer: The Potency was inconclusive [inhibitor, single point].

Question: How did the Potency turn out when `NC(=O)C1CCN(C2CC(=O)N(c3cccc(F)c3)C2=O)CC1` (configuration not stated) was run?
Answer: The Potency was “inactive”.

Question: With `CCOc1ccccc1OCCCOc1ccc(C)cc1Cl` as the compound, how does the Potency read?
Answer: Its Potency is inconclusive [activator, single point].

Question: Which Potency does the source give for `Cc1ccc(N=CC2=C(O)CC(c3ccccc3Cl)CC2=O)cc1` (configuration not stated) here?
Answer: The Potency was “inactive”.

Question: How did the Potency turn out when `CN(C)c1cc(-c2ccc(Br)cc2)oc(=O)c1Cl` was run?
Answer: The Potency was “inactive”.

Question: With `CC(=O)C1=C(O)C(=O)N(Cc2ccccc2)C1c1ccco1` (configuration not stated) as the compound, how does the Potency read?
Answer: The Potency was inconclusive [inhibitor, full curve, poor fit].

Question: `Cc1cc(/C=N/NC(=O)C(O)(c2ccccc2)c2ccccc2)c(C)n1-c1ccc(C(=O)O)cc1` was tested. Which Potency did it give?
Answer: The Potency was inconclusive [inhibitor, partial curve].

Question: With `Cc1cccc(N2NC(=O)/C(=C/c3ccc(-c4ccc(Cl)c(C(=O)O)c4)o3)C2=O)c1` as the compound, how does the Potency read?
Answer: The Potency was inconclusive [inhibitor, single point].

Question: With `COC(=O)[C@H]1[C@H]2C[C@@H]3c4[nH]c5cc(OC)ccc5c4CCN3C[C@H]2C[C@@H](OC(=O)c2cc(OC)c(OC)c(OC)c2)[C@@H]1OC` as the compound, how does the Potency read?
Answer: The Potency was inconclusive [inhibitor, single point].

Question: How did the Potency turn out when `N#C/C(=C(/O)c1ccc(-c2cccc([N+](=O)[O-])c2)o1)c1nc2ccccc2s1` was run?
Answer: The Potency was inconclusive [inhibitor, single point].

Question: With `c1ccc(CN2CCC(=NNc3nc4ccccc4[nH]3)CC2)cc1` as the compound, how does the Potency read?
Answer: The Potency was inconclusive [inhibitor, single point].

Question: Which Potency does the source give for `O=C(NNc1nc2c(F)cccc2s1)c1cc(=O)c2ccccc2o1` here?
Answer: Its Potency is inconclusive [inhibitor, single point].

Question: Which Potency does the source give for `CC(=O)NC1=NC(=O)/C(=C/c2cc(C)n(-c3cccc(C(=O)O)c3)c2C)S1` here?
Answer: The Potency was inconclusive [inhibitor, partial curve].

Question: With `CCCCNc1nc(-c2ccccc2)cc(C(F)(F)F)c1C(N)=O` as the compound, how does the Potency read?
Answer: The Potency was inconclusive [activator, single point].

Question: `c1ccc(CSc2snnc2-c2ccccc2)cc1` was tested. Which Potency did it give?
Answer: Its Potency is inconclusive [activator, single point].

Question: How did the Potency turn out when `O=C(/C=C/c1ccco1)Nc1ccc(-c2nc3ccccc3[nH]2)cc1` was run?
Answer: Its Potency is inconclusive [activator, partial curve].

Question: `NC(=O)c1cc(C(=O)c2ccccc2Cl)c[nH]1` was tested. Which Potency did it give?
Answer: Its Potency is “inactive”.

Question: With `O=C(Cc1cccs1)Nc1nnc(Cc2ccccc2)s1` as the compound, how does the Potency read?
Answer: Its Potency is inconclusive [inhibitor, partial curve].

Question: Which Potency does the source give for `O=C(Nc1nnc(C2=COCCO2)o1)c1ccc(Cl)cc1` here?
Answer: The Potency was inconclusive [inhibitor, partial curve].

Question: Which Potency does the source give for `Cn1c(=S)oc2ccccc21` here?
Answer: The Potency was inconclusive [inhibitor, single point].

Question: `Clc1ccccc1C1=CC(c2ccco2)n2nnnc2N1` (configuration not stated) was tested. Which Potency did it give?
Answer: The Potency was “inactive”.

Question: For `O=C(N/N=C/c1ccccn1)c1cc(-c2ccc(Cl)cc2)nc2ccccc12`, which Potency is on record?
Answer: Its Potency is inconclusive [inhibitor, single point].

Question: For `Cc1ccc(S(=O)(=O)NC(=O)Nc2nccs2)cc1`, which Potency is on record?
Answer: Its Potency is “inactive”.

Question: `O=c1[nH]c(=O)n(-c2cccc3ccccc23)c(O)c1C=NCCCn1ccnc1` was tested. Which Potency did it give?
Answer: The Potency was “inactive”.

Question: With `CNC(=O)c1ccc(-n2cccn2)nc1` as the compound, how does the Potency read?
Answer: Its Potency is inconclusive [activator, single point].

Question: How did the Potency turn out when `COC(=O)c1[nH]c2ccccc2c1NS(=O)(=O)c1ccc(F)c(C)c1` was run?
Answer: Its Potency is “inactive”.

Question: How did the Potency turn out when `CC(/C=N/n1c(-c2ccccn2)n[nH]c1=S)=C\c1ccccc1` was run?
Answer: The Potency was inconclusive [inhibitor, partial curve].

Question: `O=C(/C=C/c1ccc2c(c1)OCO2)Nc1nc(-c2ccc(F)cc2F)cs1` was tested. Which Potency did it give?
Answer: Its Potency is inconclusive [activator, single point].

Question: Which Potency does the source give for `CN(C)C(=O)CSc1cccc2cccnc12` here?
Answer: The Potency was inconclusive [inhibitor, single point].

Question: `Nc1ccc(N=Nc2ccccc2Cl)c(N)n1` was tested. Which Potency did it give?
Answer: The Potency was inconclusive [inhibitor, single point].

Question: For `Cc1ccccc1C(=O)Nc1nnc(CC(=O)N/N=C/c2cn(Cc3ccccc3)c3ccccc23)s1`, which Potency is on record?
Answer: Its Potency is inconclusive [inhibitor, full curve, poor fit].

Question: Which Potency does the source give for `FC(F)(Cl)c1nnc2ccc(Cl)nn12` here?
Answer: The Potency was inconclusive [inhibitor, single point].

Question: With `COc1ccc(-c2csc(-c3cccnc3)n2)cc1C` as the compound, how does the Potency read?
Answer: The Potency was inconclusive [activator, partial curve].

Question: For `CN1/C(=C\C=N\NC(=O)c2ccc(O)cc2)C(C)(C)c2ccccc21`, which Potency is on record?
Answer: Its Potency is inconclusive [inhibitor, single point].

Question: How did the Potency turn out when `O=C(O)c1ccc(CN2C(=O)CSC2=S)cc1` was run?
Answer: The Potency was “inactive”.

Question: `Cn1cnnc1SCc1ccc(C(=O)N=Nc2c(O)n(Cc3ccc(Cl)cc3)c3ccccc23)cc1` was tested. Which Potency did it give?
Answer: Its Potency is inconclusive [activator, single point].

Question: With `O=C1c2cc(Br)ccc2O[C@@H](c2ccc3c(c2)OCO3)[C@@H]1O` as the compound, how does the Potency read?
Answer: Its Potency is inconclusive [activator, full curve, poor fit].

Question: Which Potency does the source give for `O=C(Cn1cccn1)c1ccccc1` here?
Answer: Its Potency is inconclusive [activator, partial curve, poor fit].

Question: How did the Potency turn out when `O=C(CSc1nc2[nH]ncc2c(=O)n1-c1ccccc1Br)NCc1ccco1` was run?
Answer: Its Potency is inconclusive [inhibitor, single point].

Question: How did the Potency turn out when `Cn1c(=O)cc(OCC(=O)N2CCC(N3CCCCC3)CC2)c2ccccc21` was run?
Answer: The Potency was “inactive”.

Question: `CC(C)(C)c1ccccc1OCCOCCSc1ncccn1` was tested. Which Potency did it give?
Answer: Its Potency is inconclusive [activator, partial curve].

Question: `Cc1cc(C=O)c(C)n1-c1sc2c(c1C(=O)O)CCCC2` was tested. Which Potency did it give?
Answer: The Potency was “inactive”.

Question: How did the Potency turn out when `Cc1coc(C)c1C(=O)CC1(O)C(=O)Nc2cc(Cl)cc(Cl)c21` (configuration not stated) was run?
Answer: Its Potency is “inactive”.

Question: For `O=C(O)[C@@H]1C[C@@H](C(=O)O)N1`, which Potency is on record?
Answer: The Potency was inconclusive [activator, single point].

Question: `O=C1NCCCC1C(=O)N/N=C/c1ccccc1O` (configuration not stated) was tested. Which Potency did it give?
Answer: The Potency was inconclusive [inhibitor, single point].

Question: Which Potency does the source give for `N#Cc1ccc(COC(=O)c2ccc(N3CCCC3)c([N+](=O)[O-])c2)cc1` here?
Answer: Its Potency is inconclusive [inhibitor, single point].

Question: For `COc1ccc(Cn2c(O)c(/C=N/NC(=O)c3ccncc3)c(=O)[nH]c2=O)cc1`, which Potency is on record?
Answer: The Potency was inconclusive [inhibitor, single point].

Question: For `O=C(O)c1cccc(COc2ccccc2Cl)c1`, which Potency is on record?
Answer: Its Potency is “inactive”.

Question: How did the Potency turn out when `CCOC(=O)N1CCC(NCc2c(C(=O)N(C)Cc3ccccc3)nc3ccccn23)CC1` was run?
Answer: Its Potency is inconclusive [activator, partial curve].

Question: `C=CCc1cccc(CNc2c(C)cc(C)cc2C)c1O` was tested. Which Potency did it give?
Answer: Its Potency is inconclusive [activator, single point].
